# According to ChEMBL document CHEMBL1201862, “PubChem BioAssay data set” (2004):
#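 Following 48 hours of exposure in 96-well plates, responses at five concentrations were used to interpolate endpoints linearly. At the GI50, growth is halved.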 The source made the active and inactive calls. Cut-off read from the data, not from the text of the source: active = GI50 up to about 1.1 µM and inactive = higher.
# System: NCI-H322M
# Assay: growth of human tumour cells (NCI), 48 h
row,SMILES,GI50
1,COc1ccccc1N1C(=O)/C(=C\c2cc(OC)c(OC)c(OC)c2)SC1c1ccccc1 (centres undefined),inactive: > 100 µM
2,COC1CCC(OC)C(C2(C3CC(OC)CCC3OC)OC(=O)c3ccccc32)C1 (centres undefined),inactive: > 100 µM
3,COC(=O)C(C(=O)C(=O)Nc1c(Cl)cc([N+](=O)[O-])cc1Cl)c1csc(-n2nc(C3=CCCCC3)cc2-c2ccccc2)n1 (centres undefined),inactive: > 100 µM
4,O=C(N(C1=CCCC1)N(c1ccccc1)c1ccccc1)C(F)(F)F,inactive: 21.7 µM
5,CC(=O)O[C@H]1CC[C@@]2(C)C(=CC[C@@H]3[C@@H]2CC[C@]2(C)C(=O)/C(=C\c4ccccc4)C[C@@H]32)C1,inactive: > 100 µM
6,O=C1C2=Cc3ccccc3OC2(O)Oc2cc3ccccc3cc21 (centres undefined),inactive: > 100 µM
7,Cc1c2c(c(C)n1-c1ccccc1)C(=O)N(CCSC(=N)N)C2=O,inactive: > 100 µM
8,NC(=O)C(=Cn1c(=S)[nH]c2ccc([N+](=O)[O-])cc21)C(N)=O,inactive: > 100 µM
9,CC(C)=CC(C)C(C(O)CCC1(c2ccoc2)OCCO1)S(=O)(=O)c1ccccc1 (centres undefined),inactive: > 100 µM
10,CC(=O)[C@]1(O)Cc2c(O)c3c(c(O)c2[C@@H](OC2CC(N)C(O)C(C)O2)C1)C(=O)c1c(OCc2ccccc2)cccc1C3=O (some centres undefined),inactive: 2.27 µM
11,COC1CC(NC(=O)C(F)(F)F)C(OC(C)=O)C(C)O1 (centres undefined),inactive: > 100 µM
12,O=C1NI(C#Cc2ccccc2)c2ccccc21,inactive: > 100 µM
13,CSC1=N/C(=C\c2ccc(C)cc2)C(=O)N1,inactive: > 100 µM
14,COc1cc(C[C@@H](C)N)cc(OC)c1,inactive: > 100 µM
15,c1ccc2c(c1)nc1n2CCNC1,inactive: > 100 µM
16,COc1ccc(-c2cc(-c3ccc(C)cc3)n(C3OC(COC(C)=O)C(OC(C)=O)C(OC(C)=O)C3OC(C)=O)c(=S)c2C#N)cc1 (centres undefined),inactive: > 100 µM
17,CCn1c(=O)c2c3cc(O)ccc3oc2c2ccc(O)cc21,inactive: 32.1 µM
18,O=C1c2ccccc2C(=O)N1CCCSc1ccccc1,inactive: > 100 µM
19,COc1ccc2c(c1)CC[C@@H]1[C@@H]2CC[C@]2(C)C(=O)/C(=C/c3ccncc3)C[C@@H]12,inactive: 45.4 µM
20,C[C@H]1CC[C@]2(NC1)O[C@H]1C[C@H]3[C@@H]4CC[C@H]5C[C@@H](O[C@@H]6O[C@H](CO)[C@H](O[C@@H]7O[C@H](CO)[C@@H](O)[C@H](O[C@@H]8OC[C@@H](O)[C@H](O)[C@H]8O)[C@H]7O[C@@H]7O[C@H](CO)[C@@H](O)[C@H](O)[C@H]7O)[C@H](O)[C@H]6O)CC[C@]5(C)[C@H]4CC[C@]3(C)[C@H]1[C@@H]2C [TOMATINE],inactive: 1.73 µM
21,NNC(=O)CCC(NS(=O)(=O)c1ccc(Cl)cc1)C(=O)NN (centres undefined),inactive: > 100 µM
22,CCCCCCCCCCCCCCCC(=O)OCCOCCOCCOCc1ccccc1,inactive: > 100 µM
23,CN(Cc1cnc2nc(N)nc(N)c2n1)c1ccc(C(=O)NC(CCC(=O)NC(P(=O)(O)O)P(=O)(O)O)C(=O)O)cc1 (centres undefined),inactive: > 100 µM

row,SMILES,GI50
1,CNCc1cc(OC)ccc1-c1ccc(OC)c(OC)c1OC,inactive: > 81.1 µM
2,COc1ccc(C(=O)C(c2ccc(OCc3ccccc3)cc2)c2ccc(OCc3ccccc3)cc2)cc1,inactive: > 100 µM
3,CC(=O)ON1C(=O)c2cccc3cccc(c23)C1=O,inactive: 27.5 µM
4,COc1ccc2cc(CN3CCC(C4CCNCC4)CC3)ccc2c1,inactive: 2.04 µM
5,O=C1C(N2C(=O)c3ccccc3C2=O)CN1C(COCc1ccccc1)c1ccc(OCc2ccccc2)cc1 (centres undefined),inactive: > 100 µM
6,COc1cc(O)c2c(=O)c(OC)c(-c3ccc4c(c3)OCO4)oc2c1OC,inactive: > 50 µM
7,COC(=O)NC(=O)c1cn(C2OC(CO)C(O)C2O)c(=O)[nH]c1=O (centres undefined),inactive: > 100 µM
8,Cn1c2nc3ccccc3c-2cc2ccccc21 [NEOCRYPTOLEPINE],inactive: 2.23 µM
9,COc1ccc(N2C(=O)CC(=O)N(C(=O)COc3ccc(OCC(=O)N4C(=O)CC(=O)N(c5ccc(OC)cc5)C4=S)cc3)C2=S)cc1,inactive: 28.8 µM
10,NNC(=O)c1ccccc1Nc1nc(-c2cccs2)nc2ccc(Br)cc12,inactive: > 100 µM
11,C/C(=C\c1ccccc1)C(=O)NCc1ccc(C(=O)NCCC(C)C)cc1,inactive: > 100 µM
12,Cc1ccc(NC(=O)CC(=O)N2N=C(N(CCC#N)c3cccc(C)c3)CC2c2ccccc2)cc1 (centres undefined),inactive: > 100 µM
13,Clc1ccccc1C(Nc1ncccn1)Nc1ncccn1,inactive: > 100 µM
14,O=P1(N(CCCl)CCCl)Oc2c(Cl)cc(Cl)c(Cl)c2Cc2c(Cl)c(Cl)cc(Cl)c2O1,inactive: 53.3 µM
15,Cc1ccc2nc3c(C(=O)NCCN(C)C)cccc3cc2c1,inactive: 2.18 µM
16,CCC1(CC)C(=O)NC(=O)NC1=S,inactive: > 100 µM
17,COc1ccccc1N1C(=O)CC(=O)N(C(=O)CCCCCCCCC(=O)N2C(=O)CC(=O)N(c3ccccc3OC)C2=S)C1=S,inactive: 71.3 µM
18,NNC(=O)Cc1cccnc1,inactive: > 100 µM
19,COc1ccc2nccc(/C=C/c3ccc(N(C)C)cc3)c2c1,inactive: > 10 µM
20,CC(=O)NNc1nc(C)c(C(/C=C/c2ccc([N+](=O)[O-])cc2)=N/N)s1,inactive: 84.3 µM
21,N#Cc1nc(C(O)c2ccccc2)oc1N (centres undefined),inactive: > 100 µM
22,COC(=O)c1ccccc1/C=C1\Cc2ccc3ccccc3c2C1C (centres undefined),inactive: 72.9 µM
23,O=[N+]([O-])c1ccc(C2N3CCCCC3[C@@H]3c4[nH]c5ccccc5c4CCN23)cc1 (some centres undefined),inactive: 19.6 µM

row,SMILES,GI50
1,CCCCCCCCCc1cc(=O)c2ccc(O)cc2o1,inactive: > 100 µM
2,CN1CCN2c3ccccc3CC(C#N)(C#N)C2C1 (centres undefined),inactive: > 100 µM
3,O=c1[nH]cnc2c(COCCO)c[nH]c12,inactive: > 100 µM
4,COc1cc(/C=C2\Cc3cc(OC)c(OC)cc3C2=O)cc(OC)c1,inactive: > 77.8 µM
5,CCC(=O)NCC1CCCN2CCCCC12 (centres undefined),inactive: > 100 µM
6,O=C1c2ccccc2OP(=O)(OCC(F)(F)F)OC1(C(F)(F)F)C(F)(F)F (centres undefined),inactive: > 100 µM
7,Cc1nc(-c2cc3c(ccc4ccccc43)oc2=O)cs1,inactive: 84.7 µM
8,O=C(NCc1ccccc1Cl)c1c(O)c2ccccc2[nH]c1=O,inactive: > 100 µM
9,COc1ccc(N2C(=O)C(Cl)C2c2cc3cc(Br)ccc3nc2Cl)cc1 (centres undefined),inactive: 9.73 µM
10,CC(C)C1OC(=O)C(Cc2ccccc2)N(C)C(=O)C(C(C)C)OC(=O)C(Cc2ccccc2)N(C)C(=O)C(C(C)C)OC(=O)C(Cc2ccccc2)N(C)C1=O (centres undefined),inactive: 1.52 µM
11,COc1cc(OC)c(OC)cc1/C=C\c1ccnc2ccccc12,active: 0.608 µM
12,CCC(CO)COC(=O)/C=C/C(=O)OCC(CC)CO (centres undefined),inactive: > 100 µM
13,O=c1o[nH]/c(=N/c2ccccc2)n1-c1ccccc1,inactive: > 100 µM
14,O=c1c(-c2ccccc2)c(SCCN2CCCC2)n(-c2ccccc2)c(=S)n1-c1ccccc1,inactive: > 100 µM
15,O=C(NCCN1CCCC1)c1cn2c(ccc3sc4ccccc4c(=O)c32)n1,inactive: 6.18 µM
16,CCOC(=O)C1(Cc2ccccc2)C=CN(C(=O)c2ccccc2)C=C1,inactive: > 100 µM
17,CC(C)(C)CC(C)(C)c1cc2c(O)c(c1)Cc1cc(C(C)(C)CC(C)(C)C)cc(c1O)Cc1cc(C(C)(C)CC(C)(C)C)cc(c1O)Cc1cc(C(C)(C)CC(C)(C)C)cc(c1O)C2,inactive: > 100 µM
18,NS(=O)(=O)c1ccc(/N=N/c2cnc(O)c(O)c2)cc1,inactive: 45.4 µM
19,O=C1/C(=C/c2ccc(Cl)cc2)CSc2ccccc21,inactive: 73.6 µM
20,COc1ccc(Nc2[nH]c(C(C)=O)c(N)c2C(=S)Nc2ccccc2)cc1,inactive: 65.3 µM
21,CO/N=C(\C(=O)Nc1cncs1)c1csc(N)n1,inactive: > 10 µM
22,Cc1nn(-c2ccccc2)c(-c2ccccc2[N+](=O)[O-])c1CC#N,inactive: > 100 µM
23,CCc1cc(C)cc2[n+]1CC=C2.[O-][Cl+3]([O-])([O-])[O-],inactive: > 100 µM

row,SMILES,GI50
1,NS(=O)(=O)c1ccc(NNc2c3ccccc3nc3c(C(=O)Nc4ccc(S(N)(=O)=O)cc4)cccc23)cc1,inactive: 31.5 µM
2,OCCN(/N=C\c1ccc2ccccc2c1)C1=NCCN1,inactive: 29.3 µM
3,Cc1ccc(S(=O)(=O)[C@@H](Cl)[C@H]2N=C(Cl)NN=C2c2ccccc2)cc1,inactive: 35.2 µM
4,CC1(C)OC(CCC#N)CN1C(=O)OCc1ccccc1 (centres undefined),inactive: > 100 µM
5,CN(C(=O)/C=C/c1ccccc1)C1C2CN3CCC(O2)C13 (centres undefined),inactive: > 100 µM
6,O=C(Nc1ccccc1)c1cc(S(=O)(=O)N2CCNC2=O)c(S)cc1Cl,inactive: > 100 µM
7,Cc1ccc(NC(=O)c2cccc(OP(=O)(O)Nc3ccc(C)cc3)c2)cc1,inactive: > 100 µM
8,CCOC(=O)Cn1nc2ccc(Nc3c(C)[n+]([O-])c4cc(F)c(OCC)cc4[n+]3[O-])cc2n1,inactive: > 100 µM
9,CC1(C)CC2C(=O)c3ccccc3NC2c2ccccc21 (centres undefined),inactive: 5.5 µM
10,Cc1c(C(=O)Nc2ccccc2)nnn1-c1ccnc2cc(C(F)(F)F)ccc12,inactive: 69.3 µM
11,CCCC(O)[C@@H](O)c1ccc2c(c1O)C(=O)c1c(OC)cccc1C2=O (some centres undefined),inactive: 39.8 µM
12,Cc1cccc(C)c1NC(=O)CCCC(=O)C(C#N)c1ccc(Cl)cc1 (centres undefined),inactive: > 100 µM
13,S=C(NN=C1NCCCN1)Nc1ccccc1,inactive: > 100 µM
14,CC1=C(C#N)C2C(=C(C)N1)C(N)=Nc1ccccc12 (centres undefined),inactive: 88.5 µM
15,CC1(C)CCC[C@]2(C)[C@@H]1CC[C@@]13O[C@@H]1C1=C(CO)C(=O)O[C@]14O[C@@H]4[C@@H]23,inactive: 14.9 µM
16,Cc1cccc(CC(Cc2c(C)cccc2C(=O)O)C(=O)O)c1 (centres undefined),inactive: > 100 µM
17,O=C1Cc2nc(CO)c(CO)c(CO)c2CO1,inactive: > 100 µM
18,CCCCOCn1c(=O)[nH]c(=O)c2ccccc21,inactive: > 100 µM
19,O=c1[nH]c2nc[nH]c2c(=O)n1C1CCCCC1,inactive: > 100 µM
20,CC1=NN(c2ccccc2)C(=O)C1C(=O)C(=O)Nc1ccc(C)cc1C (centres undefined),inactive: > 100 µM
